Results on 56 variants are retold here after the RNAGym collection of RNA variant scans (doi:10.7554/elife.90254).

B1: LINE1-mini (parent)
chain: GGCAGAGCUCAACACAGCGUGGCAAAGUGGCUGUGGCUAGACUGCC

The source gives no read counts; variants with many changes may rest on few reads.

In the data set the parent is B1. The data set can be described thus: self-cleavage, relative activity (ratio to wild type); higher = more cleavage; in vitro, sequencing; the parent is a self-cleaving ribozyme.
In the case of GGCAUAGCUCACCACACCGUGGCAAAGUGGCUGCGGCUAGACUGCC [G5U A12C G17C U34C], the self-cleavage is 0.07. Under GGCAUGGCUCAACACAGCGUGGCAAAGUGGCUGUGGCUAAACUGCC [G5U A6G G40A] stands 0.05. GGCAUAGCUCUACACAGCGUGACAAAGUGGCUGUGGCUAGACUGCC [G5U A11U G22A]: the self-cleavage was 0.05. The same measure for GGCACAGCUCAACACAGCGAGGCAAAGUGGCUGUGGCUACACUGCC [G5C U20A G40C]: 0.03; for GGCAUAGCUCACCACAGCGUGGCAAAGUUACUGUGGCUAGACUGCC [G5U A12C G29U G30A]: 0.01; for GGCAUUGCUCAGCACAGCGUGGCAAAGUGGCUGUGGUUAGACUGCC [G5U A6U A12G C37U]: 0.28.

As to GGCACAGCUCAACACAGCGCGGGAAAGUGGCUGUGGCUAGACUGGU [G5C U20C C23G C45G C46U], the self-cleavage was 0.04.

With GGCAUAGCUCGACACAGCGUUGCAUAGUGGCUGUGGCUAGACCGCC [G5U A11G G21U A25U U43C], the self-cleavage turned out to be 0.11.

Take GGCACAGCACAACACAGCGUGGCAAAGAGGCUGUGGCUAGACUGCC [G5C U9A U28A]: the self-cleavage is 0.06. Under GGCACAGCUCAACACAGCGCGGCAAAGUGGCUGUGGCUUGACUGCG [G5C U20C A39U C46G] stands 0.29; under GGCAUAGCUCACCACAGCGUGGCAAAGUGGCUAUGGGUAGACUGCC [G5U A12C G33A C37G], 0.02; under GGCACAGCACAACACAGCGCGGCAAAGUGGCUGUGGCCAGACUGCC [G5C U9A U20C U38C], 0.09.

For the variant GGCACAGCUCAACACAGCGAGGCAAAGUGGCUGUGGCUAGACUGUC [G5C U20A C45U], the self-cleavage is 0.12. The same measure for GGCACAGCUCAACACAGCGGGGCAUAGUGGCUGUAGCUAGACUUCC [G5C U20G A25U G35A G44U]: 0.01; for GGCAUGGCUCAACACAGCGUGGCAAAGUGGCUGAGGCUAGACUGCC [G5U A6G U34A]: 0.04.

On to GGCAUAGCUCACCACAGCGUGGCAAAGUGGCUGCGGCUAGACUGCC [G5U A12C U34C], for which the self-cleavage came to 0.03. As for GGCAUAGCUCGACACAGCGUGGCAUAGUGGCGGUGGCUAGACUGCC [G5U A11G A25U U32G], the self-cleavage was 0.02. The same measure for GGCAUUGUUCAACACAGCGUGGCAAAGUGGCUGUGGCUUGACUGCC [G5U A6U C8U A39U]: 0.01; for GGCAUUGAUCAACUCAGCGUGGCAAAGUCGAUGUGGCUAGACUGCC [G5U A6U C8A A14U G29C C31A]: 0.12. For the variant GGCAUCGCUCUACACAGCGUGGCAAAGUGGCUGUGGCUAAACUGCC [G5U A6C A11U G40A], the self-cleavage came out at 0.03. Under GGCAUAGCUCAGCACAGCGUGGCAAAGUGGCUGUGGCAAGACUGAC [G5U A12G U38A C45A] stands 0.01. The same measure for GGCACAGCUCAACACAGCGCGGCAAAGUGGGUAUGGCUAGACUGCC [G5C U20C C31G G33A]: 0.03. For the variant GGCAUAGCUCACCACAGUGUAGCAAAGUGGCUGUGGCUAGACUCCC [G5U A12C C18U G21A G44C], the self-cleavage turned out to be 0.01. With GGCAUAGCUCAUCACAGCGUGGCAAUGUGGCUGUGCCUAGACUGCC [G5U A12U A26U G36C], the self-cleavage was 0.03. Under GGCAUGGCUCAACACAGCGUGGCAAAGUGGCUGUUGCUAGACUGCC [G5U A6G G35U] stands 0.1. The same measure for GGCACAGCUCAACACAGCGUGGCAAAGAGGCUGUGGCUAGAGUUCC [G5C U28A C42G G44U]: 0.02. Under GGCAUAGCUCAACCCAGCGUGGCAAAGUCGCUGUGGCUGGACCGCC [G5U A14C G29C A39G U43C] stands 0. Consider GGCACAGCUCAACACAGCGUGGCAAAGUGGCCGUGGCUAGUCUGUC [G5C U32C A41U C45U], for which the self-cleavage was found to be 0.03. Take GGCAUAGCUCCACACAGCGUGGCCAAGUGGCUGUGGAUAUACUGCC [G5U A11C A24C C37A G40U]: the self-cleavage was 0.02. Under GGCACAGCGCAACACAGCGUGGUAUAGUGGUUGUGGCUAGACCGCC [G5C U9G C23U A25U C31U U43C] stands 0.03; under GGCACAGCCCAACACAGCGUGGCAAAGUAGCUGCGGCUAGACUGCC [G5C U9C G29A U34C], 0.03; under GGCAUAGCUCUAGACAGCGUGGCAAGUUGGUUGUGGCUAGAGUACC [G5U A11U C13G A26G G27U C31U C42G G44A], 0.01.

For GGCAUUGCUCAACACAGCGUGGCAAAGUGGCUGUGGCUAGACUACC [G5U A6U G44A], the self-cleavage was found to be 0.6. Under GGCAUAGCUCACCACAGCGUGGUAAAGUGGCUGUGGCUAGACUGCC [G5U A12C C23U] stands 0.07. Under GGCACAGCCCGACACAGCGUCGCAAAGUGGCUGUGGCUAGCCUGCC [G5C U9C A11G G21C A41C] stands 0.01; under GGCACAGCGCAACACAGCGUGGCAAAGUGUCUGUGGCUAGACUGCC [G5C U9G G30U], 0.06. The same measure for GGCACAGCUCAACACAGCGGGCCAAAGUGGCUGUGGCUAGACUGCC [G5C U20G G22C]: 0.05. As to GGCAUAGCUCAGCACAUCGUGGAAAAGUGGCUGUGGCUAGAGUGCC [G5U A12G G17U C23A C42G], the self-cleavage came out at 0.02. Under GGCAUAGCUCCACCAAGCGUGGCAAAGUUGCUGUGGCUAGACUGCC [G5U A11C A14C C15A G29U] stands 0.02; under GGCAUGCCUCAACACAGCGUUGCAAAGUGGCUGUGGCUAGACUGCC [G5U A6G G7C G21U], 0.04. Under GGCAUAGCUCUAUACAGCGUGGCAAUGUGGCUGUGGCUAGACUGCC [G5U A11U C13U A26U] stands 0.05.

For GGCAUAGCUCAUCACAGCGUGGCAUACUGGCCGUGGCUAGACUGCC [G5U A12U A25U G27C U32C], the self-cleavage amounted to 0.05.

In the case of GGCACAGCCCAACACGGCGUGGUAAAGUGGCUGUGGCUAGACUGCC [G5C U9C A16G C23U], the self-cleavage is 0.

With GGCACAGCUCAACACAGCGUGGCAAAGCGGCUUUGGCUCAACUGCC [G5C U28C G33U A39C G40A], the self-cleavage was determined as 0.06.

Consider GGCAUUGCUCAACACAGCGUGGCAAAGUGGCUGUGGAUAGUCUGCC [G5U A6U C37A A41U], for which the self-cleavage was found to be 0.1. On to GGCACAGCUCAACACAGCGUGGCAAAGCGGCUGGGGCUAGACUACC [G5C U28C U34G G44A], for which the self-cleavage stood at 0.03. As for GGCACAGCGGAACACAGCUUGGCAAAGUGGCUGUGGCUCGAGUGAC [G5C U9G C10G G19U A39C C42G C45A], the self-cleavage turned out to be 0. Under GGCAUAGCUCGACCCAGCGUGGCCACGUGGCUGUGGCUUGACUGCC [G5U A11G A14C A24C A26C A39U] stands 0.02; under GGCACAGCGCAACACAACGUGGCAAAGUGGCUGUGGCCAAACUGCC [G5C U9G G17A U38C G40A], 0.01; under GGCAUGGCUAAACACAGCGUUGCAAAGUGACUGUCGCUAGACUGCU [G5U A6G C10A G21U G30A G35C C46U], 0.02. As to GGCAUAGCUCAUCACAGCGUUGCAAAGUGGAUGUGGCUAGAAUGCC [G5U A12U G21U C31A C42A], the self-cleavage was 0. Under GGCAUCGCUCAAAACAGCGUGGCAAAGUGGCUGUGGCUAGACUGCC [G5U A6C C13A] stands 0.05; under GGCACAGCCUAACACAGCGUGGCAAAGUGGUUGUGGCUUGACUGCC [G5C U9C C10U C31U A39U], 0.04. Under GGCAUAGCUCCAAACAGCGUGGCAAAGUUGCUGUGGCUAGACUGCC [G5U A11C C13A G29U] stands 0; under GGCAUGGCUCAAUACAGCGUCGCAAAGUGGCUGUGGCUAGAUUGCA [G5U A6G C13U G21C C42U C46A], 0.07. For the variant GGCACAGCUCAACACAGCGAGGCCAAGUGGCUGUGGCUAGACUGCC [G5C U20A A24C], the self-cleavage turned out to be 0.03.
